# Measured values as given in paper PMC4336329 (PLoS ONE, 2015).
# About 2,200 (0.71%) of roughly 310,000 compounds showed an effect of 50% or more. Effects have a minus sign here. The list shows a part of the results.
# Target: human ether-à-go-go-related gene (hERG) potassium channel (human, UniProt Q12809)
# Assay: primary screen, population patch clamp on CHO cells stably expressing hERG
# Chain of human ether-à-go-go-related gene (hERG) potassium channel (Q12809 whole entry, looked up): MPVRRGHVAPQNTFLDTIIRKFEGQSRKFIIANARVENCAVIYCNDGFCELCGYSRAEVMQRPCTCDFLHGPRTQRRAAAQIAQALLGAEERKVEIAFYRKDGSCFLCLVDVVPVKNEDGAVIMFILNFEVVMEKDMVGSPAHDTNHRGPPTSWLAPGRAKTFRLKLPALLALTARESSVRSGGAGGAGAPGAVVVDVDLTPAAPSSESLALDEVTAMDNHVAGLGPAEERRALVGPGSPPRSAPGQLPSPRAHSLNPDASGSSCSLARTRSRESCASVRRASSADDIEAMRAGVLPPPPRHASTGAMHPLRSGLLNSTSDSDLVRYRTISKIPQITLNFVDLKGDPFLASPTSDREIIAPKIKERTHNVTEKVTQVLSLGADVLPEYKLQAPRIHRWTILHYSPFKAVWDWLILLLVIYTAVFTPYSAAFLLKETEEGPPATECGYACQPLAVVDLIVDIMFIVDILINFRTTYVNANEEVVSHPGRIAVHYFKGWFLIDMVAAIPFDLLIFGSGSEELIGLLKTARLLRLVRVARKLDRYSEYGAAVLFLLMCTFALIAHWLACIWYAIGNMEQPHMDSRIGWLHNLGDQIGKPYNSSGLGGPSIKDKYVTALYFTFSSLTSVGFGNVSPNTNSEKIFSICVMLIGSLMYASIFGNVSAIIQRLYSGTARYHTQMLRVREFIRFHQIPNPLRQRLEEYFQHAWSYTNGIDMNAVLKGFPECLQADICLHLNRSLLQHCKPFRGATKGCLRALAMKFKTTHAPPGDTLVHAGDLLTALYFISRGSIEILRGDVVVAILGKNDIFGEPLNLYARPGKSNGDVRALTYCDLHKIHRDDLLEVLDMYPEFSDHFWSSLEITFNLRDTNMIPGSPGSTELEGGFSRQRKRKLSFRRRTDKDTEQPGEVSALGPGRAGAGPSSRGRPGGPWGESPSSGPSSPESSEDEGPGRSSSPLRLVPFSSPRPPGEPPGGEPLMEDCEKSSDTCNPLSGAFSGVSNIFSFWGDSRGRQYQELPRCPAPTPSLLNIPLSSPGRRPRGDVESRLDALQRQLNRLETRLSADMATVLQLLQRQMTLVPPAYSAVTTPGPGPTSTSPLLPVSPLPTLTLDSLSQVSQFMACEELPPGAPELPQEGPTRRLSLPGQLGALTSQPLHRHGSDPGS
row,SMILES,"hERG current change (%, negative = inhibition) at 1uM"
1,Cc1ccc(NC(=O)Nc2nnc(CSCCOc3ccc(Cl)cc3)s2)cc1,4.92%
2,CCCC(CCC(=O)Nc1nccs1)C(=O)O (stereo not drawn),17.6%
3,O=C1CSc2ccc(S(=O)(=O)N3CCN(c4ccccc4)CC3)cc2N1,11.3%
4,CC(=O)NCCn1c(SCc2ccc(C)cc2C)nc2ccccc2c1=O,5.66%
5,Cc1ccc2nc(-c3ccc(O)c(O)c3)cn2c1.Cl,9.44%
6,Cl.N=c1ccccn1Cc1ccccc1,11.2%
7,O=C(CN(C(=O)c1csnn1)c1ccc(F)c(Cl)c1)NCc1ccccc1,7.54%
8,Clc1cccc(CN2CCCCC2c2cccnc2)c1 (stereo not drawn),5.41%
9,N#CC1(NC(=O)Cn2cc(C(F)(F)F)cc(Cl)c2=O)CCCCC1,12.7%
10,Cc1cc(Nc2n[nH]c(N)c2C#N)ccc1F,-20.1%
11,COc1ccccc1NS(=O)(=O)c1ccc(C(=O)NCc2ccncc2)cc1,0.515%
12,Cc1ccc(NC(=O)CSc2nc3ccccc3c(=O)n2Cc2cccs2)cc1,14.3%
13,Cc1cc(C)n(-c2nc(NC(C)(C)C)nc(NC(C)(C)C)n2)n1,-9.53%
14,COc1cccc(N(CC(=O)NCCSCc2ccco2)S(=O)(=O)c2ccccc2)c1,3.13%
15,CCN(CC)c1ncnc2sc(C(=O)N3CCN(c4ccccc4)CC3)c(C)c12,-1.59%
16,COc1ccccc1-n1cc(-c2ccc([N+](=O)[O-])cc2)[nH]c1=S,9.79%
17,Cc1ccc(C(=O)c2no[n+]([O-])c2C(=O)c2ccc(C)cc2)cc1,-1.36%
18,O=C(Cn1ccc(NC(=O)OCc2ccccc2)nc1=O)NCCCc1ccccc1,18.3%
19,COc1cccc(C(=O)Nc2nc(-c3ccc(S(=O)(=O)N4CCOCC4)cc3)cs2)c1,7%

row,SMILES,"hERG current change (%, negative = inhibition) at 1uM"
1,CCOc1ccc(C(=O)NCCc2cnc[nH]2)cc1OCC,17%
2,CCN(CC)P(=O)(/C=C(\Cl)c1ccccc1)/C=C(\Cl)c1ccccc1,13%
3,COc1ccc(CCN2CC(C(=O)NCc3ccco3)CC2=O)cc1OC (stereo not drawn),11.2%
4,COc1cc(C2NC(=O)NC(C)=C2C(=O)OCC2CCCO2)cc(OC)c1OC (stereo not drawn),19.1%
5,O=C1NC(=Nc2cccc([N+](=O)[O-])c2)SC1(CO)CO,2.12%
6,COc1ccccc1CC(=O)Nc1ccc(Cl)cc1C(=O)O,9.83%
7,COc1ccccc1CCNS(=O)(=O)c1ccc(C(=O)O)n1C,11.6%
8,O=C1CN(C(=O)/C=C/c2ccc(Cl)cc2Cl)CCN1,1.56%
9,Fc1ccc(Cn2cccc2C2=NC(c3ccccc3)CO2)cc1 (stereo not drawn),0.0212%
10,COCCN(CC(=O)NCc1ccc(F)cc1)C(=O)CCC(=O)Nc1ccccn1,10.4%
11,CCOc1ccccc1N(C)S(=O)(=O)c1ccc2c(c1)CCN2C(=O)CCC(=O)O,16.4%
12,CCOc1ccc(N2C(=O)C3C(c4ccc(OC)cc4OC)NC(CCSC)(C(=O)OC)C3C2=O)cc1 (stereo not drawn),8.03%
13,O=C1NC(=O)N(c2ccc3c(c2)OCO3)C(=O)/C1=C/c1cccs1,16.6%
14,O=C(c1cccc(-n2cnnn2)c1)N1CCOCC1,2.61%
15,Cc1ccc(S(=O)(=O)N2CCCCC2)cc1C(=O)NCc1ccncc1,10.4%
16,CCc1ccc(/C=N\n2cnnc2)cc1,11%
17,O=C(Oc1c(CN2CCOCC2)cc(Cl)c2cccnc12)c1ccccc1Cl,5.78%
18,CCn1nc(C)c(/C=N/NC(=O)Cn2nc(C)cc2C)c1C,10.2%
19,CC(=O)c1ccc(NC(=S)NC(C)CCc2ccccc2)cc1 (stereo not drawn),9.87%

row,SMILES,"hERG current change (%, negative = inhibition) at 1uM"
1,COc1ccc(CN(CC2CCCO2)S(=O)(=O)c2ccc(C(=O)O)cc2)cc1OC (stereo not drawn),0.828%
2,CC(=O)Nc1ccc(Nc2nc(C)c([N+](=O)[O-])c(Nc3ccc(NC(C)=O)cc3)n2)cc1,20.7%
3,O=C(C1CCCN(S(=O)(=O)c2cccc3cccnc23)C1)N1CCN(c2ccc(F)cc2)CC1 (stereo not drawn),-50.1%
4,COc1ccc(N(CC(=O)N2CCN(C)CC2)S(=O)(=O)c2ccccc2)cc1,7.23%
5,COc1ccc(-n2cc(CN(C)C3CCOCC3)c(-c3cccc(F)c3)n2)cc1,-3.87%
6,CC(=O)OCC(=O)[C@@]1(O)CC[C@H]2[C@@H]3CCC4=CC(=O)C=C[C@]4(C)[C@H]3C(=O)C[C@@]21C,18.6%
7,CCc1nccn1S(=O)(=O)c1cc(OC)c(Cl)cc1OC,-8.36%
8,CCCCCC(=O)OCCc1c(C)nc2nc[nH]n2c1=O,14.3%
9,COc1ccc(Nc2nc(N)nc(CN3CCOCC3)n2)cc1,1.93%
10,CCOC(=O)c1[nH]c(C)c(/C=N/O)c1C,0.579%
11,COCCOCC(O)CN1CCN(c2ccccc2)CC1.O=C(O)C(=O)O (stereo not drawn),2.97%
12,COc1ccccc1CCC(=O)NC1CCCN(c2ccc(C(F)(F)F)cn2)C1 (stereo not drawn),6.13%
13,CC(C(=O)Nc1ccccc1)N(C)CCOc1ccc(Br)cc1 (stereo not drawn),5.82%
14,CC(C)(C)NC(=O)c1ccc(NC(=O)c2ccccc2-c2ccccc2C(=O)O)cc1,22.2%
15,Cc1cc(C)c(C(=O)N(C)CC2CCCN(CCc3ccccc3F)C2)o1 (stereo not drawn),-48%
16,CCN1CCN(c2cc(C)c3cc(NC(=S)NCCN(C)C)ccc3n2)CC1,8.49%
17,Cc1ccc(-n2cc(-c3ccccc3)c3c(=O)[nH]cnc32)cc1,0.911%
18,O=C1COc2ccc(C(=O)NCc3ccc4c(c3)OCO4)cc2N1,3.33%
19,CC(C)NC(=O)c1cc2c(C(F)(F)F)nn(C)c2s1,6.69%
